# From PubChem BioAssay (Tox21)
# “And” between values parts separate entries of the source, which are not always exact repeats. Equal values may be shown once. Inconclusive results, whose numbers are uncertain, are shown with a selection of clear calls. For part of these data: A potency beside an inconclusive call is a rough fit, not a confirmed value. The source made the active and inactive calls. Unless noted, calls come from the whole dose curve; as a rule, active = well fitted curve in the direction sought with a large enough effect in the repeat runs; inconclusive = weak or mixed curves; inactive = no such curve, though single readings can be large; an effect the other way counts as inactive or inconclusive.
# Assays:
# [1] = qHTS assay to identify small molecule antagonists of the estrogen related receptor (ERR) signaling pathway from Tox21 library - cell viability counter screen (AID 1224834); note: nearly all actives have a fitted effect of over 30% in size; note: potency is the fitted concentration of half-maximal effect
# Method in brief: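 After 17.5 h of compound exposure at 37 C, ERR cells are incubated with CellTiter-Fluor for 30 min and fluorescence intensity serves as the viability measure.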
# [2] = molecular target: Nuclear receptor subfamily 1 group I member 3 (Homo sapiens) (UniProt Q14994); assay: qHTS assay to identify small molecule antagonists of the constitutive androstane receptor (CAR) signaling pathway (AID 1224838);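 note: HepG2 cells stably expressing hCAR with CYP2B6 luciferase reporter stimulated by CITCO; potency is the fitted concentration of half-maximal effect; nearly all actives have a fitted effect of over 40% in size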
# UniProt Q14994, sequence (Q14994 whole entry, looked up): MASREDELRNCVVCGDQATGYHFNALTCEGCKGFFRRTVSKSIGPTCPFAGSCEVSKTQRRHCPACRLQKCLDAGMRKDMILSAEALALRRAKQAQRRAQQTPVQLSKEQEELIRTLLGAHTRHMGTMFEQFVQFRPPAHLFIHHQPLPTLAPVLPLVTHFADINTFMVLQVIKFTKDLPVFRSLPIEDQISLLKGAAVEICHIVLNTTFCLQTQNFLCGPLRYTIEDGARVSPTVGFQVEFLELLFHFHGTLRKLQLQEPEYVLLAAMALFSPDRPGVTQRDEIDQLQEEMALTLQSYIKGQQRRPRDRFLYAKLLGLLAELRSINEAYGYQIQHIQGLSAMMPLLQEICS
# Method in brief: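 Cell line: HepG2 double-stable for hCAR and CYP2B6-2.2kb reporter. Agonist: CITCO, 50 nM final. Compounds: 15 concentrations, 24 h, 37 C. Detection: ONE-Glo luminescence.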
# [3] = qHTS assay to identify small molecule antagonists of the estrogen related receptor signaling pathway with the pleiotropic PPARgamma coactivator (PGC) from Tox21 10K library - cell viability counter screen (AID 1224840; active = well fitted cell-killing curve with a large enough effect in the repeat runs, not every such curve was filed as active; inconclusive = weak or mixed curves, or effect the other way; inactive = no such curve, though single readings can be large or run the other way; note: potency is the fitted concentration of half-maximal effect; nearly all actives have a fitted effect of over 40% in size)
# Method in brief: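 Following seeding of 2,000 PGC/ERR cells/well and 6 hours' incubation, test compounds were delivered in DMSO. The plates then sat 17.5 hours at 37 C before a fluorogenic live-cell protease reagent (CellTiter-Fluor) was read after 30 min.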
# [4] = molecular target: Thyrotropin receptor (Homo sapiens) (UniProt P16473); assay: qHTS assay to identify small molecule agonists of the thyroid stimulating hormone receptor (TSHR) signaling pathway (AID 1224843; calls by dose curve; note: nearly all actives have a fitted effect of over 45% in size; note: potency is the fitted concentration of half-maximal effect; for activation: % is set by controls: 0 for no effect and ±100 for the full control effect); details: TSHR-HEK293 cells, cAMP HTRF, agonist mode, 30 min; activation: at 92.4 µM (top of the series) unless noted
# UniProt P16473, sequence (P16473 whole entry, looked up): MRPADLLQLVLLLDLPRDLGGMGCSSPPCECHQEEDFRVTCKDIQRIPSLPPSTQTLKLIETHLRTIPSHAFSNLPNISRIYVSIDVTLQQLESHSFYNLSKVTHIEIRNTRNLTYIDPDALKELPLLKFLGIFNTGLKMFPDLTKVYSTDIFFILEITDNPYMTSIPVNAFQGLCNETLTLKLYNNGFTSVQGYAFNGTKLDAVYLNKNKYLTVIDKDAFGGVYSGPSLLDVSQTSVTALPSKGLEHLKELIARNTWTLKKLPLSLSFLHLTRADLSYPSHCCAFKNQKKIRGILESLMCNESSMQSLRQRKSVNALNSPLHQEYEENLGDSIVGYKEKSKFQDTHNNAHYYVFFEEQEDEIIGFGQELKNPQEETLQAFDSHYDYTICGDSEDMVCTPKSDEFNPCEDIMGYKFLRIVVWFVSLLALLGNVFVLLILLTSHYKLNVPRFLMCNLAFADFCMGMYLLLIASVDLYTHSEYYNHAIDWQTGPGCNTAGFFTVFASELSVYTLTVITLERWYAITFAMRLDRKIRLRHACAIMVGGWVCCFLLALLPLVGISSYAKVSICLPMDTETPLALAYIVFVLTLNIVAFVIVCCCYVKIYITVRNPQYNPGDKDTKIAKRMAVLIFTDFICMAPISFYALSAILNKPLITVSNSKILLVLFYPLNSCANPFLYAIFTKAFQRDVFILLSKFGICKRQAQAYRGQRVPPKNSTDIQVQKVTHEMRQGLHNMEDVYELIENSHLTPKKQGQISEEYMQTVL
# Method in brief: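 Cell line HEK293 with TSHR; density 800/well. Exposure 30 min RT. Readout HTRF cAMP (cAMP-d2/anti-cAMP-cryptate), 1 h RT before reading.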
# [5] = qHTS assay to identify small molecule agonists of the hypoxia (HIF-1) signaling pathway (AID 1224846; active = well fitted activation curve with a large enough effect in the signal ratio in the repeat runs, not every such curve was filed as active; inconclusive = weak or mixed curves; the % refers to the signal ratio; note: potency is the fitted concentration of half-maximal effect; for activation: % is set by controls: 0 for no effect and ±100 for the full control effect); details: HRE-bla ME-180 cells, beta-lactamase ratio, 17 h; activation: at 76.8 µM (top of the series) unless noted
# Method in brief: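 A low-serum medium (0.5% dialyzed FBS) holding 2,000 HRE-bla ME-180 cells per well is preincubated for 5 hrs, dosed with compounds by pintool, and kept a further 17 hrs at 37C, 5% CO2 before CCF4-AM FRET detection of beta-lactamase.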
# [6] = molecular target: Nuclear receptor subfamily 1 group I member 3 (Homo sapiens) (UniProt Q14994); assay: qHTS assay to identify small molecule agonists of the constitutive androstane receptor (CAR) signaling pathway (AID 1224839); note: potency is the fitted concentration of half-maximal effect; nearly all actives have a fitted effect of over 15% in size
# Method in brief: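 Cells were plated and incubated 4 hrs, then dosed with compounds at 15 concentrations. PK11195 was added to 0.75 uM final. After 24 hrs at 37 C, luciferase luminescence was measured.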
# [7] = qHTS assay to identify small molecule agonists of the estrogen related receptor signaling pathway with the pleiotropic PPARgamma coactivator (PGC) from Tox21 10K library (AID 1224842); note: potency is the fitted concentration of half-maximal effect; nearly all actives have a fitted effect of over 15% in size
# Method in brief: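 PGC/ERR reporter cells (NTP line) were seeded 2,000 per well, rested 6 h at 37 C/5% CO2, then pin-dosed with compounds in DMSO for 18 h at 37 C; luciferase read by One-Glo luminescence after 30 min at room temperature.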
# [8] = qHTS assay to identify small molecule agonists of the hypoxia (HIF-1) signaling pathway - cell viability counter screen (AID 1224844; calls by dose curve; note: nearly all actives have a fitted effect of over 50% in size; note: potency is the fitted concentration of half-maximal effect)
# Method in brief: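 Cells (HRE-bla ME-180, 2,000 per well) sat 5 hrs at 37C, got compound for 17 hrs, were read for CCF4-AM FRET, and were finally lysed with CellTiter-Glo for a 30 min room-temperature luminescence read.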
# [9] = qHTS assay to identify small molecule agonists of H2AX (AID 1224845; active = well fitted activation curve with a large enough effect in the signal ratio in the repeat runs, not every such curve was filed as active; inconclusive = weak or mixed curves; the % refers to the signal ratio; note: potency is the fitted concentration of half-maximal effect; for activation (H2AX phosphorylation): % is set by controls: 0 for no effect and ±100 for the full control effect); details: CHO-K1 phospho-H2AX Ser139 HTRF, 3 h; activation (H2AX phosphorylation): at 154 µM (top of the series) unless noted
# Method in brief: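 Wild-type CHO-K1 cells plated overnight, then exposed 3 hr at 37C to compounds at 15 concentrations (0.76% DMSO). Lysed, then HTRF anti-pH2AX(S139)-cryptate/anti-H2AX-d2 detection after 24 hr at room temperature; emissions 665 and 620 nm.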
# [10] = qHTS assay to identify small molecule agonists of H2AX - cell viability counter screen (AID 1224847; calls by dose curve; note: nearly all actives have a fitted effect of over 30% in size; note: potency is the fitted concentration of half-maximal effect)
# Method in brief: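 Cytotoxicity counter screen in wild-type CHO-K1 cells: a 3 hr compound treatment at 37C across 15 concentrations, followed by CellTiter-Glo luminescence to gauge viable cells.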
# [11] = qHTS assay to identify small molecule antagonists of the estrogen related receptor (ERR) signaling pathway from Tox21 library (AID 1224848); note: potency is the fitted concentration of half-maximal effect; nearly all actives have a fitted effect of over 50% in size
# Method in brief: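 Screening used an ERR reporter line supplied by NTP, exposed for 18 h at 37 C to library compounds delivered in DMSO. Signal was luciferase luminescence developed with ONE-Glo at room temperature for 30 min.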
# [12] = qHTS assay to identify small molecule agonists of the estrogen related receptor (ERR) signaling pathway from Tox21 library (AID 1224849; calls by dose curve; note: % is set by controls: 0 for no effect and ±100 for the full control effect; nearly all actives have a fitted effect of over 15% in size); details: ERR reporter cell line, ONE-Glo luciferase, 18 h
# Method in brief: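 Screening used an NTP-provided ERR luciferase cell line. Compounds in DMSO were added 6 h after seeding and left 18 h at 37 C before a 30 min ONE-Glo step and luminescence reading.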
# [13] = qHTS RealTime-Glo MT Cell Viability Assay in HEK293 cells - 32 hour (AID 1224868); note: potency is the fitted concentration of half-maximal effect; nearly all actives have a fitted effect of over 50% in size
# Method in brief: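 Assay medium contained NanoLuc luciferase plus cell-permeant prosubstrate, added with HEK293 cells at 600 cells/well. After 5 h at 37 C/5% CO2 compounds were added; plates stayed at 37 C for 40 h with serial luminescence reads.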
# [14] = qHTS assay to identify small molecule antagonists of the constitutive androstane receptor (CAR) signaling pathway - cell viability counter screen (AID 1224837); note: potency is the fitted concentration of half-maximal effect; nearly all actives have a fitted effect of over 45% in size
# Method in brief: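 Counter screen run in HepG2-CYP2B6-hCAR cells: 4 hr settle, compound titration (15 concentrations) with 50 nM CITCO, 23 hr at 37 C/5% CO2, CellTiter-Fluor fluorescence.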
# Tags give direction and shape of the fitted curve or compound fluorescence and quenching.
structure (smiles),measurement,setting,value
O=C(NCc1ncc(C(F)(F)F)cc1Cl)c1c(Cl)cccc1Cl,Potency,[1],"inconclusive: 30.6 µM [cytotoxic, partial curve, poor fit]"
same,Potency,[2],"inconclusive: 5.45 µM [inhibitor, full curve]"
same,Potency,[3],"inconclusive: 9.69 µM [cytotoxic, full curve, poor fit]"
same,activation,[4],inconclusive: -25.5%
same,Potency,[5],active: 15.5 µM
COCCCOc1ccnc(CS(=O)c2nc3ccccc3[nH]2)c1C (centres undefined),Potency,[1],"inconclusive: 60.9 µM [cytotoxic, partial curve]"
same,Potency,[6],"inconclusive: 26.6 µM [activator, partial curve, poor fit]"
same,Potency,[3],inconclusive: 60.9 µM [cytotoxic]
same,Potency,[7],"inconclusive: 5.43 µM [activator, partial curve]"
same,Potency,[8],inactive
same,Potency,[9],"inconclusive: 126 µM [falling, single point]"
same,Potency,[5],inactive
same,Potency,[10],"inconclusive: 100 µM [cytotoxic, partial curve, poor fit]"
same,Potency,[11],"inconclusive: 43.1 µM [inhibitor, partial curve]"
same,"activity change, positive = activation",[12]; at 42.5 µM (top of the series),inconclusive: 6.15%
CCCCc1ccc2nc(NC(=O)OC)[nH]c2c1,Potency,[1],"inconclusive: 0.0944 µM [cytotoxic, full curve]"
same,Potency,[6],active: 5.96 µM
same,Potency,[7],active: 3.76 µM
same,Potency,[8],"inconclusive: 0.535 µM [rising, full curve]"
same,Potency,[5],inactive
same,"activity change, positive = activation",[12]; at 42.5 µM (top of the series),active: 17.3%
same,Potency,[13],"inconclusive: 0.0756 µM [cytotoxic, full curve]"
CC(=O)Nc1ccc(N=Nc2cc(C)ccc2O)cc1,Potency,[1],"inconclusive: 27.3 µM [cytotoxic, partial curve]"
same,Potency,[6],"inconclusive: 2.17 µM [activator, full curve, poor fit]"
same,Potency,[3],inconclusive: 54.5 µM [cytotoxic]
same,Potency,[7],active: 4.33 µM
same,Potency,[5],"inconclusive: 61.6 µM [falling, partial curve, poor fit]"
same,Potency,[10],"inconclusive: 127 µM [cytotoxic, partial curve, poor fit]"
same,"activity change, positive = activation",[12]; at 92.4 µM (top of the series),active: 169%
CCOC(=O)COC(=O)c1cc(Oc2ccc(C(F)(F)F)cc2Cl)ccc1[N+](=O)[O-],Potency,[1],"inconclusive: 68.6 µM [cytotoxic, single point]"
same,Potency,[6],"inconclusive: 54.5 µM [activator, partial curve]"
same,activation,[4],inconclusive: -31%
same,Potency,[10],"inconclusive: 31.8 µM [cytotoxic, partial curve, poor fit]"
same,Potency,[13],"inconclusive: 54.9 µM [cytotoxic, single point]"
CCOC(=O)COc1ccc2c(c1)CC(NCC(O)c1cccc(Cl)c1)CC2 (centres undefined),Potency,[1],inconclusive: 61.6 µM [cytotoxic]
same,Potency,[14],inconclusive: 54.9 µM [cytotoxic]
same,Potency,[3],"inconclusive: 61.6 µM [cytotoxic, single point]"
same,Potency,[4],"inconclusive: 61.6 µM [activator, partial curve, poor fit]"
same,Potency,[10],"inconclusive: 114 µM [cytotoxic, single point]"
same,Potency,[11],"inconclusive: 61.6 µM [inhibitor, partial curve, poor fit]"
CCCOC(=O)c1ccc(N)cc1,Potency,[1],"inconclusive: 21.1 µM [cytotoxic, partial curve]"
same,Potency,[6],"inconclusive: 21.1 µM [activator, partial curve]"
same,Potency,[11],"inconclusive: 23.7 µM [inhibitor, partial curve, poor fit]"
Nc1cc([N+](=O)[O-])cc(Cl)c1O,Potency,[1],"inconclusive: 48.6 µM [cytotoxic, partial curve]"
same,Potency,[14],"inconclusive: 48.6 µM [cytotoxic, partial curve]"
same,Potency,[9],"inconclusive: 56.6 µM [falling, partial curve]"
same,Potency,[10],inactive
CCCCCCCCCCC,Potency,[1],inactive
same,Potency,[6],"inconclusive: 77 µM [activator, partial curve, poor fit]"
same,Potency,[5],"inconclusive: 54.9 µM [rising, single point]"
CCCCOC(=O)c1ccc(N)cc1,Potency,[1],"inconclusive: 8.41 µM [cytotoxic, full curve]"
same,Potency,[6],"inconclusive: 60.3 µM [activator, single point] and active: 23.7 µM"
same,Potency,[9],inactive
same,Potency,[13],"inconclusive: 16.9 µM [cytotoxic, partial curve]"
